PubChem BioAssay AID2546 (National Center for Advancing Translational Sciences (NCATS), 2010)
The whole screen tested about 310,000 compounds, of which about 11,000 (3.5%) were called active. Inconclusive results, whose numbers are uncertain, are shown with a selection of clear calls. Calls follow the shape of the dose curve; as a rule, active = well fitted inhibition curve with a large enough effect; inconclusive = small, poorly fitted or top-dose-only effect, or effect the other way; inactive = flat fitted curve, though single readings scatter. No potency is given beside an inconclusive call; the fits are too rough.

Experiment: VP16 counterscreen qHTS for inhibitors of ROR gamma transcriptional activity;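 also: Gal4-VP16 expression switched on by copper sulfate through the metallothionein promoter; nearly all actives have a fitted effect of over 50% in size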
Details: Drosophila S2 Gal4-VP16 UAS-luciferase, luminescence, 20 h; activity, negative = inhibition: at 53.6 µM (top of the series)
% is scaled to controls: 0 for no effect and ±100 for the full control effect; potency is read from the fitted curve at half-maximal effect; tags tell the direction and shape of the fitted curve.

| Compound | Potency | activity, negative = inhibition |
| --- | --- | --- |
| Cc1csc(NC(=O)c2ccccc2O)n1 | inactive |  |
| Cc1ccc(/C=N/n2cc(-c3ccccc3)[nH]c2=S)s1 | active: 5.01 µM |  |
| CCOc1ccc(N2C(=O)C(Cl)=C(N3CCOCC3)C2=O)cc1 | inconclusive [inhibitor, single point] |  |
| CC(C)c1ccccc1-n1c(SCc2cc(=O)oc3ccc4ccccc4c23)nnc1-c1cccnc1 | inconclusive [inhibitor, single point] |  |
| O=C(NNC(=O)c1ccccc1OCc1ccc(F)cc1)c1ccccc1O | active: 10 µM |  |
| Cc1ccc(O)c(/C=N/NC(=O)CN2CCCC2)c1 | inconclusive [inhibitor, single point] |  |
| COc1cccc(Nc2nc3ccccc3n2C(C)C)c1 | inactive |  |
| O=C(c1ccc(Nc2nccc(-c3cc4ccccc4s3)n2)cc1)N1CCC(N2CCCC2)CC1 | inconclusive [inhibitor, single point] |  |
| c1ccc(CNc2nc(-c3ccc4c(c3)OCO4)nc3ccccc23)cc1 | inactive |  |
| O=c1c2ccccc2[nH]c(=S)n1Cc1ccccc1Cl | active: 5.01 µM |  |
| O=[N+]([O-])/C=C/c1cn(Cc2ccc(F)cc2)c2ccccc12 | inconclusive [inhibitor, single point] |  |
| CC1=C(C(=O)Nc2cccc(C(=O)NC3CCCCC3C)c2)SCCO1 (configuration not stated) | inactive |  |
| Cc1sc2nc(COC(=O)c3ccc(O)cc3)[nH]c(=O)c2c1C | inactive |  |
| Cc1cc(NC(=O)CCN2C(=O)/C(=C/c3ccccc3Cl)SC2=S)no1 | inconclusive [inhibitor, single point] |  |
| Cc1ccc(NC2=C(N3CCCCC3)C(=O)c3ccccc3C2=O)cc1 | inconclusive [inhibitor, single point] |  |
| N#CC12CCCCC1CC1CCCCC1(C#N)N2Cc1ccccn1 (configuration not stated) | inconclusive [inhibitor, partial curve, poor fit] |  |
| CCN(CC)C(=O)/C(=C/c1ccc2c(c1)OCO2)NC(=O)c1ccc(Br)cc1 | inconclusive [activator, single point] |  |
| CCOC(=O)CN1C(c2ccc(O)cc2)Nc2ccc(Br)cc2C1c1ccccc1 (configuration not stated) | inconclusive [inhibitor, single point] |  |
| CCn1c(=O)c(C(=O)NCc2ccccc2)c(O)c2ccccc21 | active: 15.8 µM |  |
| O=C(NC(=S)NCCC1=CCCCC1)c1ccc(Br)o1 | inconclusive [inhibitor, single point] |  |
| CN(C)c1ccc(N2CC(C)(C)C2=O)cc1 | inconclusive [activator, partial curve] |  |
| O=C(/C=C/c1cccc([N+](=O)[O-])c1)NC(=S)Nc1ccc(CN2CCOCC2)cc1 | inconclusive [inhibitor, single point] |  |
| O=C(Nc1ccccc1Cl)c1cc2ccccc2o/c1=N\O | inconclusive [inhibitor, single point] |  |
| COc1ccc(-c2nc(CN3CCN(c4ncnc5ccccc45)CC3)c(C)o2)c(OC)c1 | inconclusive [inhibitor, single point] |  |

| Compound | Potency | activity, negative = inhibition |
| --- | --- | --- |
| NS(=O)(=O)c1cccc(NC(=O)COC(=O)COc2ccc3ccccc3c2)c1 | inactive |  |
| O=C1c2ccccc2C(Nc2ccc(F)c(Cl)c2)N1Cc1ccco1 (configuration not stated) | inconclusive [inhibitor, single point] |  |
| O=C(CCc1nnc(COc2ccccc2)o1)NCc1ccccc1C(F)(F)F | inactive |  |
| Cc1ccc(NC(=S)Nc2nc(CC(=O)Nc3ccccc3)cs2)cc1 | active: 5.62 µM |  |
| N#Cc1c(N)nc(SCC(=O)OCc2ccccc2)c(C#N)c1-c1ccco1 | inactive |  |
| S=C(NCc1ccccc1)Nc1ccc(Oc2ccccc2)cc1 | active: 14.1 µM |  |
| NNc1nc(-c2ccccc2Cl)nc2sc3c(c12)CCCC3 | inconclusive [activator, partial curve] |  |
| Cc1ccc2ccc(S(=O)(=O)NCc3ccco3)cc2c1 | inactive |  |
| Cc1cc(Cl)ccc1NC(=S)NCc1ccc(F)cc1 | active: 7.08 µM |  |
| O=C(/C=C/c1ccco1)NC(=S)Nc1ccccc1 | active: 3.16 µM |  |
| COc1ccc(CCc2nnc(CCC(=O)NCc3cnc4ccccn34)o2)cc1 | inconclusive [inhibitor, partial curve, poor fit] |  |
| CCN(C(=S)NCc1ccccc1)c1cccc2ccccc12 | inconclusive [inhibitor, single point] |  |
| CC/C(=N\NC(=S)Nc1cccc(C)c1)c1ccccc1 | inconclusive [inhibitor, single point] |  |
| CCC1OC(=O)C(C)[C@@H](O[C@H]2C[C@@](C)(OC)C(O)C(C)O2)C(C)[C@@H](O[C@@H]2OC(C)CC(N(C)C)C2O)[C@@](C)(O)CC(C)C(=O)[C@@H](C)C(O)[C@]1(C)O (some centres not stated) | inconclusive [activator, single point] |  |
| COc1cc(NC(=O)C(=O)NNC(=O)C2CCCCC2)c(OC)cc1Cl | inconclusive [inhibitor, partial curve] |  |
| COc1ccccc1Cn1c(=S)[nH]c2cc(C(=O)NCC3CCCO3)ccc2c1=O (configuration not stated) | inconclusive [inhibitor, single point] |  |
| COc1ccc(-c2n[nH]c(=S)n2-c2ccc(C)cc2)cc1OC | inconclusive [inhibitor, single point] |  |
| COC(=O)N/N=C/c1cn(CCCOc2ccc(C)cc2)c2ccccc12 | active: 1 µM |  |
| C/C(=N\NC(=O)c1ccccc1)c1cccc(Br)c1 | inconclusive [activator, single point] |  |
| Cc1ccc(S(=O)(=O)NC(CC(=O)O)c2ccccc2)cc1 (configuration not stated) | inactive |  |
| O=C(N/N=C/C(Br)=C/c1ccccc1)C1CC1 | inconclusive [activator, single point] |  |
| COc1ccc(NC(=O)Cc2c[nH]c3ccccc23)cc1S(=O)(=O)N1CCCCC1 | inactive |  |
| c1ccc(OCCn2cnc3ccccc32)cc1 |  | inactive: 2.56% [at 0.365 µM] |
